# The list shows a part of the results.
# What was measured:
# [1] = test system: HSkMC (human skeletal muscle cells); test: cytotoxicity call (relative viability < 0.9); settings: 10 µM
# [2] = test system: HepG2; test: cytotoxicity call (relative viability < 0.9); settings: 10 µM
# [3] = test system: S. aureus RN4220; test: growth inhibition call (relative growth <= 0.2); settings: 50 µM
SMILES,cytotoxicity call [1],cytotoxicity call [2],growth inhibition call [3]
C[C@H]1CN([C@@H](C)CO)S(=O)(=O)c2ccc(C#CCC3CCCC3)cc2O[C@H]1CN(C)C(=O)c1cnccn1,inactive,inactive,inactive
Cc1ccc2sc(N(CCCN(C)C)C(=O)c3ccc(S(=O)(=O)N(C)C4CCCCC4)cc3)nc2c1C,active,active,active
COc1ccccc1S(=O)(=O)N[C@@H]1C=C[C@H](CC(=O)N2CCN(C)CC2)O[C@H]1CO,inactive,inactive,inactive
C[C@H](CO)N1C[C@H](C)[C@@H](CN(C)C(=O)Nc2ccc3c(c2)OCO3)Oc2cc(C#Cc3cccnc3)ccc2S1(=O)=O,inactive,inactive,inactive
CN1C(=O)c2cc(NC(=O)c3cscn3)ccc2OC[C@H]2O[C@H](CC(=O)N3CCOCC3)CC[C@@H]21,inactive,inactive,inactive
CCN1C(=O)S[C@@H](CC(=O)O)C1=O,inactive,inactive,inactive
CN1C(=O)c2cc(NC(=O)C3CCOCC3)ccc2OC[C@@H]2O[C@@H](CC(=O)NCc3ccccc3F)CC[C@H]21,inactive,inactive,inactive
Cc1noc(C)c1NC(=O)N(C)C[C@H]1Oc2c(NC(=O)C3CC3)cccc2C(=O)N([C@@H](C)CO)C[C@H]1C,inactive,inactive,inactive
C[C@@H]1CCCCO[C@@H](CN(C)C(=O)c2ccncc2)[C@H](C)CN([C@H](C)CO)C(=O)c2cc(NS(=O)(=O)c3cn(C)cn3)ccc2O1,inactive,inactive,inactive
C[C@@H]1CCCCO[C@@H](CN(C)Cc2ccc(C(=O)O)cc2)[C@@H](C)CN([C@@H](C)CO)C(=O)c2cc(NC(=O)Nc3cccc4ccccc34)ccc2O1,inactive,inactive,inactive
C[C@@H]1CN([C@@H](C)CO)C(=O)c2cc(NS(=O)(=O)c3ccccc3)ccc2O[C@@H](C)CCCCO[C@@H]1CN(C)CC1CCCCC1,inactive,inactive,inactive
C[C@@H]1CCCCO[C@H](CN(C)S(=O)(=O)c2cccs2)[C@@H](C)CN([C@@H](C)CO)C(=O)c2cc(NC(=O)Cc3ccccc3)ccc2O1,inactive,inactive,inactive
C[C@@H]1CN([C@H](C)CO)C(=O)Cc2cc(NC(=O)CCN3CCOCC3)ccc2O[C@H]1CN(C)Cc1ccc(C(=O)Nc2ccccc2N)cc1,inactive,inactive,inactive
C[C@@H]1CN([C@@H](C)CO)C(=O)c2cc(NS(=O)(=O)c3ccc(F)cc3)ccc2O[C@@H](C)CCCCO[C@@H]1CN(C)C(=O)c1ccccc1,inactive,inactive,inactive
CNC(=O)C[C@@H]1CC[C@H]2[C@H](COc3ccc(NC(=O)c4ccc(C(F)(F)F)cc4)cc3C(=O)N2C)O1,inactive,inactive,inactive
COc1ccc(S(=O)(=O)N(C)C[C@@H]2Oc3c(NC(=O)Nc4c(C)noc4C)cccc3C(=O)N([C@H](C)CO)C[C@H]2C)cc1,inactive,inactive,inactive
COc1cc2c(cc1OC)CN(C(=O)[C@@H]1[C@H]3C(=O)O[C@H](c4ccccc4)[C@H](c4ccccc4)N3[C@H](c3ccc(OCCO)cc3)[C@@]13C(=O)Nc1ccccc13)CC2,inactive,inactive,inactive
COCCOC(=O)N1C(=O)[C@@]2(c3cc(C#CCC(C(=O)OC)C(=O)OC)ccc31)[C@H](C(=O)N1CCc3cc(OC)c(OC)cc3C1)[C@H]1C(=O)O[C@H](c3ccccc3)[C@H](c3ccccc3)N1[C@@H]2c1ccccc1OCCO,inactive,inactive,inactive
C[C@@H]1CN([C@@H](C)CO)C(=O)CCCn2nncc2CO[C@@H]1CN(C)C(=O)Nc1ccnc(N2CCOCC2)c1,inactive,inactive,inactive
C[C@@H]1CCCCO[C@@H](CN(C)C(=O)Nc2ccccc2)[C@H](C)CN([C@H](C)CO)C(=O)c2cc(NC(=O)c3ccccc3)ccc2O1,inactive,inactive,inactive
CC(C)(C)[S@](=O)N1Cc2cc(C(=O)NCc3ccncc3)nc(-c3cccc(-c4cccc(C#N)c4)c3)c2[C@@H]1CCO,inactive,inactive,inactive
C[C@@H]1CN([C@@H](C)CO)C(=O)c2cccc(NC(=O)c3nc4ccccc4s3)c2O[C@H]1CN(C)C(=O)Nc1ccc(F)cc1,inactive,inactive,inactive
COCC(=O)Nc1ccc2c(c1)CC(=O)N2,inactive,inactive,inactive
CC(=O)N1[C@H](C(=O)N2CCc3ccccc3C2)[C@@H](CO)[C@@H]2Cn3c(cccc3=O)[C@@H]21,inactive,inactive,inactive

# — the antibiotic and cytotoxicity screens of Wong et al. (2023)
